Here are results for 39 variants from the RNAGym collection of RNA variant scans (doi:10.7554/elife.90254).

Sequences and labels used below:
B1: LINE1-full (parent)
chain: UACGUAGGUGGUUUUCCCCUGAUAGUGCUAAGGGGGCCUGGAAGUUUGGACUGGGCAGAGCUCAACACAGCGUGGCAAAGUGGCUGUGGCUAGACUGCCUCUCUGGAUUCCUCGUCACUCAGCAGGGCAUCUCUGAGAGAAAUGCC

Read counts are not given, so values of variants with three or more changes are uncertain.

The variants in the data set derive from B1. Description: self-cleavage, relative activity (ratio to wild type); higher = more cleavage; in vitro, sequencing; the parent is a self-cleaving ribozyme.
As for UACGUAGGUGAUUUUCCCCUGAUAGUGCUAAGGGGGCCCGGAAGUUUGGACUGGGCAGGGCUCAACACAGCGUGGCAAAGUGGCUAUGGCUAGACUGCCUCUCUGGAUUCCUCGUCACUCAGCAGGGCAUCUCUGAGAGAAAUGCC, the self-cleavage worked out at 0.04. The figure for UACGUAGGUAGUUUUCCCCUGAUAGUGCCAAGGGGGCCUGGAAGUUUGGACUGGGCAGAGCCCAACACAGCGUGGCGAAGUGGCUGUGGCUAGACUGCCUCUCUGGAUUCCUCGUCACUCAGCAGGGCAUCUCUGAGAGAAAUGCC is 0.35; for UACGUAGGUGAUUUUCCCCUGAUAGUGCUAAGGGGGCCUGUAAGUCCGGACUGGGCAGAGCUCAACACAGCGUGGCAAAGUGGCUGUGGCUAGACUGCCUCUCUGGAUCCCUCGUCACUCAGCAGGGCAUCUCUGAGAGAAAUGCC it is 1.84. The figure for UACGUAGGUGAUUUUCCCCUGAUAGUGCUAAGGGGGCCUGGAAGUUUGGACUGGGCAGAGCUCAACACAGCGUGGCAAAGUGGCUGAGGCUAGACUGCCUCUCUGGACUCCUCGACACUCAGCAGGGCAUCUCUGAGAGAAAUGCC is 0.08; for UACGUAGGUAGUUUUCCCCAGAUAGUGCUAAGGGGGCCUGGAAGUUUGGACUGGGCAGAGCUCAACACAGCGUGGCAAAGUGGCUGUGGCUAGUCUGCCUCUCUGGAUUCCUCGCCACUCAGCAGGGCAUCUCUGAGAGAAAUGCC it is 0.12; for UACGUAGGUGAUUUUCCCCUGAUAGUGCUGAGGGGGCCUGGAAGUUUGGACUGGGCAGAGCUCAACACAGCGUGGCAAAGUGGCUGUGGCUAGACUGCCUCUCUGGAUUCCUCGUCACCCAGCAGGGCAUCUCUGAGAGAAAUGCC it is 2.7. On to UACGUAGGUUGUUUGCCCCUGAUAGUGCUAAGGGGGCCUGGAAGUUUGGACUGGGCAGAGCUCAACGCAGCGUGGCAAAGUGGCUGUGGCUAGACUGCCUCUCUGGAUUCCUCGUCACUCAGCAGGGCAUCUCUGAGUGAAGUGCC, for which the self-cleavage came out at 0.34. The figure for UACGUAGGUAGUUUUCCCCUGAUAGUGCUAAGGGGGCCUGGAAGUUUGGACUGGGCAGAGCUCAACACAGCGUGGCAAAGUGGCUGUGGCUAGACUGCCUCUCUGGAUUCCUCGUCACCCAGCAGGGCAUCUCAGAGAGAAAUGCC is 1.53; for UACGUAGGUUGUUUUCCCCUGAUAGUGCUAAGGGGGCCUGGAAGUCUGGACUGGGCAGAGCUCAACACAGCGUGGCAAAGUGGCUGUGGCUAGACUGCCCCUCUGGAUUCCUCGUCACUCAGCAGGGCAUCUCUGAGAGAAAUGCC it is 1.8. The figure for UACGUAGGUAGUUUUCCCCUGAUAGUGCUAAGGGGGCCAGGAAGUUUGGACUGGGCAGAGCUCAACACAGCGUGGCAAAGUGGCUGUGGCUAGACUGCCUCUCUGGAUUCCUCGUCACUCAGCAGGGCAUCUUUGAGAGAAAUGCC is 1.43; for UACGUAGGUGAUUUACCCCUGAUAGUGCUAAGGGGGCCUUGAAGUUUGGACUGGGCAGAGCUCAACACAGCGUGGCAAAGUGGCUGUGGCUAGACUGCCUCUCUGGAUUCCUCGUCACUCAGCAGGGCAUCUCUGAGAGAAGCGCC it is 0; for UACGUAGGUAGUUUUCCCCUGAUAGUGCUAAGGGGGCCUGGAAGUUUGGACUGGGCAGAGCCCAACACAGCGCGGCAUAGUGGCUGUGGCUAGACUGCCUCUCUGGAUUCCUCGUCACUCAGCAGGGCAUCUCUGAGAGAAAUGCC it is 0.09.

Turning to UACGUAGGUGAUUUACCCCUGAUAGUGCUAAGGGGGCCUGGAAGUUUGGACUGGGCAGAGCUCAACACGGCGUGGCAAAGUGGCUGUGGCUAGACUGCCUCUCUGGAUUCCUCGUCACUCAGCAGGGCAUCUCUGAGGGAAAUGCC, the self-cleavage turned out to be 0.6.

As for UACGUAGGUGAUUUUCCCCUGAUAGUGCUUAGGGGGCCUGGAAGUUUGGACUGGGCAGAGCCCAACACGGCGUGGCAAAGUGGCUGUGGCUAGACUGUCUCUCUGGAUUCCUCGUCACUCAGCAGGGCAUCUCUGAGAGAAAUGCC, the self-cleavage came to 0.13. The figure for UACGUAGGUCGUUUCCCCCUGAUAGUGCUAAGGGGGCCUGGAAGUUUGGACUGGGCAGAGCUCAACACAGCGUGGCAAAGUGGCUGUGGCUAGACUGCCUCUCUGGAUUCCUCGUCACUCAGCAGGGCGUCUCUGAGAGAAAUGCC is 0.94; for UACGUAGGUGAUUUUCCCCUGAUAGUGCUAAGGGGGCCUGGAAGUUUGGACUGGGCAGAGCUCAACACAGCGUGGCAAAGUGGCUGUGGCUAGACUGCCUCUCUGGAUUCCUCGUCACUCAGCAGGGCAUCUCUGAGUGAAAAGCC it is 1.07; for UACGUAGGUAGUUUUCCCCUGAUAGUGCUAAGGGGGCCUGGAAGUUUGGACUGGGCAGAGCUCAACACAGCGUGGCAAAGUGGCUGUGGCUAGACUGCCUCCCUGGAUUCCCCGUCACUCAGCAGGGCAUCUCUGAGAGAAAUGCC it is 1.94. The figure for UACGUAGGUAGUCUUCCCCUGAUAGUGCUAAGGGGGCCUGGAAGUUUGGACUGGGCAGAGCUCAACACAGCGUGGCAAAGUGGCUGUGGCUAGACUGCCUCUCUGGAUUCCUCGUCACUCAGCAGGGCAUCUCAGAGAGAAAUGCC is 0.14. For UACGUAGGUAGCUUUCCCCUGAUAGUGCUAAGGGGGCCUGGAAGUUUGGACUGGGCAGAGUUCAACACAGCGUGGCAAAGUGGCUGUGGCUAGACUGCCUCUCUGGAUUCCUCGUCACUCAGCAGGGCAUCUCUGAGAGAAAUGCC, the self-cleavage was determined as 0.08. As to UACGUAGGUUGUCUUCCCCUGAUAGUGCUAAGGGGGCCUGGAAGUUCGGACUGGGCAGAGCUCAACACAGCGUGGCAAAGUGGCUGUGGCUAGACUGCCUCUCUGGAUUCCUCGUCACUCAGCAGGGCAUCUCUGAGUGACGUGCC, the self-cleavage is 1.67.

Regarding UACGUAGGUAGUUUUCCCCUGAUAGUGCUAAGGGGGCCUGGAAGCUUGGACUGGGCAGAGCUCAACACAGCGAGGCAAAGUGGCUGUGGCUAGACUGCCUCUCUGGAUUCCUCGUCACUCAGCAGGGCAUCUCUGAGAGAAAUGCC, the self-cleavage stood at 1.7. The figure for UACGUAGGUGAUUUUCUCCUGAUAGUGCAAAGGGGGCCUGGAAGUUUGGACUGGGCAGAGCUCUACACAGCGUGGCAAAGUGGCUGUGGCUGGACUGCCUCUCUGGAUUCCUCGUCACUCAGCAGGGCAUCUCUGAGAGAAAUGCC is 0.05. With UACGUAGGUGAUUUUCCCCUGAUAGUGCUAAGGGGGCCUGGAAGUUUGGACUGGGCAGAGCUCAACACAGCGUGGCAAAGUGGCCGUGGCUAGACUGCCUCUCUGGAUUCCUCGUCACUCAGCAGGGCACCUCUGAGAGAAAUGCC, the self-cleavage was found to be 0.38. The figure for UACGUAGGUGAUUUUCCCCUGAUAGUGCUAAGGGGGCCAGGAAGUUUGGACUGGGCAGAGCUCAACACAGCGUGGCAAAGUGGCUGUGGCUAGACUGCCUCUCUGGAUUCCUCGUCACUCAGCAGGGGAUCUCUGAGAGAAAUGCC is 1.43; for UACGUAGGUUGUUUUCCCCUGAUAGUGCUAAGGGGGCCUGGAAGUUUGGACUGGGCAGAGCUCAACACAACGUGGCAAAGUGGCUGCGGCUAGACUGCCUCUCUGGAUUCCUCGUCACUCAGCAGGGCAUCUCUGAGAGAAAUGCC it is 0.03; for UACGUAGGUUGUUUUCCCCUGAUAGUGCUAAGGGGGCCUGGAAGUUUGGACUGGGCAGAGCUCAACACAGCGUGGCAAAGCGGCUGUGGCUAGACUGCCUCUCUGGAUUCCUCGUCACUCAGCAGGGCAUCUCUGAGAGAAGUGCC it is 2.34.

As to UACGUAGGUGAUUUUCCCCUGAUAGAGCUAAGGGGGCCUGGAAGUUUGGACUGGGCAGGGCUCAACACGGCGUGGCAAAGUGGCUGUGGCUAGACUGCCUCUCUGGAUUCCUCGUCACUCAGCAGGGCAUCUCUGAGAGAAAUGCC, the self-cleavage worked out at 0. On to UACGUAGGUGAUUUUCCCCUGAUAGUGCUAAGGGAGCCUGGAAGUUUGGACUGGGCAGAGCUCAACUCAGCGUGGCAAAGUGGGUGUGGCUAGACUGCCUCUCUGGAUUCCUCGUCACUCAGCAGGGCAUCUCUGAGGGAAAUGCC, for which the self-cleavage came out at 0.01. In the case of UACGUAGGUAGUUAUCCCCUGGUAGUGCUAAGGGGGCCUGGAAGUUUGGACUGGGCAGAGCUCAACACAGCGUGGCAGAGUGGCUGUGGCUAGACUGCCACUCUGGAUUCCUCGUCACUCAGCAGGGCAUCUCUGAGAGAAAUGCC, the self-cleavage was determined as 0.1. On to UACGUAGGUAGUUUUCCCCUGAUAGUGCUAAGGGGGCCUGGAAGAUUGGACUGGGCAGAGCUCAACGCAGCGUGGCAAAGUGGCUGUGGCUAGACUGCCUCUCUGGAUUCCUCGUCACUCAGCAGGGCAUCUCUGAGAGAAAUGCC, for which the self-cleavage was 0.27. UACGUAGGUAGUUUUCCCCUGAUAGUGCUAAGGGGGCCUGGAAGUUUGGACCGGGCAGAGCUCAACACAGCGUGGCAGAGUGGCUGUGGCUAGACUGCCUCUCUGGAUUCCCCGUCACUCAGCAGGGCGUCUCUGGGAGAAAUGCC: the self-cleavage was found to be 0. With UACGUAGGUGAUUUUCCCCUGAUAGUGCUAAGGGGGCCUGGAAGUUUGGACUGGGCAGAGCUCAACACAGCGUGGCAAAGUGGCUGUGUCUAGACCGCCUCUCUGGAUUCCUCGUCACUCAGCAGGGCAUCUCUGAGAGAAAUGCC, the self-cleavage worked out at 0.04. On to UACGUAGGUGAUUUUCCCCCGAUAGUGCUAAGGGGGCCUGGAAGUUUGGACUGGGCAGAGCUCAACACAGCGUGGCAAAGUGGCCGUGGCUAGACUGCCUCUCUGGAUUCCUCGUCACUCAGCAGGGCAUCUCUGAGAGAAAUGCC, for which the self-cleavage stood at 0.21.

For the variant UACGUAGGUAGUUUUCCCCUGAUAGUGCUAAGGGGGCCUGGAAGCUUGGACUGGGCAGAGCUCAACACUGCGUGGCAAAGUGGCGGUGGCUAGACUGCCUCUCUGGAUUCCUCGUCACUCAGCAGGGCAUCCCUGAGAGAAAUGCC, the self-cleavage came out at 0.92. With UACGUAGGUGAUUUUCCCCUGAUAGCGCUAAGGGGGCCUGGAAGUUUGGACUGGGCAGAGCUCAGCACAGCGUGGCAAAGUGGCUGUGGCUAGACUGCCUCUCUGGAUUCCUCGUCACUCAGCAGGGCAUCUCUGAGAGAAAUGCC, the self-cleavage amounted to 0.05. With UACGUAGGUGAUUUUCCCCUGAUGGUGCUAAGGGGGCCUGGAAGUUUGGACUGGGCAGAGCUCAACACAGCGUGGCAAAGUGGCUGUGGCUAGACUGCCUCUCAGGAUUCCCCGUCACUCAGCAGGGCAUCUCUGAGGGAAAUGCC, the self-cleavage came to 0.88.

UACGUAGGUGAUUUUCCCCUGAUAGUGCUAAGGGGGCCUGGAUGUUUGGACUGGGCAGAGCUCAGCACAGCGUGGCAAAGUGGCUGUGGCUAGACUGCCUCUCUGGAUUCCUCGUCACUCAGCAGGGCAUCUCUGAGAGAAAUGCC: the self-cleavage worked out at 0. As for UACGUAGGUAGUUUUCCCCUGAUAGUGCUAAGGGGGCCUGGAAGUUUGGACUGGGCAGAGCUCAACACAGCGAGGCAAAGUGGCUGUGGCUAGACUGCCUCUCAGGAUUCCUCGUCACUCAGCAGGGCAUCUCUGAGAGAAAUGCC, the self-cleavage worked out at 1.26. With UACGUAGGUAGUUCUCCCCUGAUAGUGCUAAGGGGGCCUGGGAGUUUGGACUGGGCAGAGCUCAACACAGCGCGGCAAAGAGGCUGUGGCUAGACCGCCUCUCUGGAUUCCUCGUCACUCAGCAUGGCAUCUCUGAGAGAAAUGCC, the self-cleavage was 0.3.
